From PubChem BioAssay (NCI) come the findings set out here.

Molecules are shown by their SMILES. Several values for one entry are separate records, joined by “and”; a condition that tells them apart may be missing. Identical values can stand only once. Counter-ions that a name gives are not always drawn.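 Following 48 hours of exposure in 96-well plates, responses at five concentrations were used to interpolate endpoints linearly. GI50 = concentration required for 50% inhibition of growth. Definition used: TGI = concentration required for complete inhibition of growth.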 Peptide text beside a SMILES is read from it. * marks the point of attachment. Tfa = O=C(C(F)(F)F)* A value given as a limit tells only on which side of the number the result lay.

The assay deals with NCI-H322M lung. Nature of the assay: growth of human tumour cells (NCI), 48 h.
With `Cc1cc(N(CCC#N)CCC#N)ccc1/C=C1N=C(/C=C\c2ccccc2)OC\1=O`, the TGI is over 100 µM.
As for `Nc1ncnc2c1ncn2C1OC(COP(=O)(O)O)C(O)C1O` (configuration not stated), the TGI was over 50 µM.
Consider `CC(C)(C)c1cc(C(=O)Nc2cc(Br)c(Br)cc2S(N)(=O)=O)cc(C(C)(C)C)c1O`, for which the TGI stood at 25.6 µM.
Compound `ON/N=C/c1cc2c(cc1Br)OCO2` gave a TGI of over 386 µM.
Compound `Cc1ccc(S(=O)(=O)c2c(N)c3nc4ccccc4n3c3nc4ccccc4nc23)cc1` showed a TGI of over 100 µM.
Turning to `CC(=O)Nc1ccc(Nc2cc(=O)[nH]c(=O)[nH]2)cc1`, the TGI is over 100 µM.
Regarding `COc1ccc(OC)c(/C=N/NC(=O)Cc2csc3nc(-c4ccc(Br)cc4)cn23)c1`, the GI50 was 14.7 µM and the TGI came out at 61.9 µM.
Compound `CC1=NCCN=C(C)C1N=Nc1ccc2nc(C)[nH]c2c1` showed a TGI of 34.9 µM.
Consider `O=C1/C(=C/c2ccccc2)CCCC1CN1CCCCC1` (configuration not stated), for which the TGI was 29.1 µM.
For `COc1cc2c3c(n(CCCN)c(=O)c2cc1OC)-c1ccccc1C3=O`, the GI50 was 0.577 µM and the TGI is 4.88 µM.
As to `Cc1ccc([N+](=O)[O-])cc1NC(=O)Nc1cccc(F)c1`, the GI50 was 14.6 µM and the TGI was over 100 µM.
As to `CCOc1ccc2nc(-c3ccc(O)cc3)sc2c1`, the TGI was over 100 µM.
The same measure, in the same setting: the value for `CCCCCCCC1C(C)c2c([nH]c3ccccc23)C2C(=O)N(c3ccc(OC)cc3)C(=O)C21` (configuration not stated) was over 10 µM; that for `O=C(CN1CCN(Cc2ccccc2)CC1)c1ccc2[nH]c(=O)oc2c1` was over 100 µM.
`COc1ccc(C(=O)c2cc(OC)c(OC)c(OC)c2)cc1` displayed a TGI of over 83.2 µM.
Consider `COC(=O)C1=C(c2ccc(OC)c(OC)c2)OC(c2ccc(OC)c(OC)c2)C1` (configuration not stated), for which the TGI was over 100 µM.
Compound `COc1ccc2nc3cc(Cl)ccc3c(NCCCN(Cc3cc(OC)c(OC)c(OC)c3)Cc3cc(OC)c(OC)c(OC)c3)c2c1` came in with a TGI of 23.5 µM.
In the case of `N=C(N)c1ccc(OCc2cccc(COc3ccc(C(=N)N)cc3)c2)cc1`, the GI50 is 14.6 µM and the TGI was 29.8 µM.
The compound `Cc1ccc(S(=O)(=O)OC2CCN(C)CC2)cc1` returned a TGI of over 100 µM.
`CCOC(=O)c1cnn2c1ncc1c(=O)n(NC(N)=O)ccc12` showed a TGI of over 100 µM.
As for `COc1cccc(C2c3cc4c(cc3OC(C)(N3CCCC3)C2C)OCO4)c1OC` (configuration not stated), the TGI stood at 64.7 µM.
With `Cc1ccc(C2=Nc3cc(C)c(Cl)cc3S(=O)(=O)NN2)cc1`, the TGI was over 100 µM.
Turning to `N#Cc1c(-c2ccccc2)nc(SCC2CO2)nc1N1CCOCC1` (configuration not stated), the GI50 is 10 µM and the TGI is over 100 µM.
Compound `COc1cc(-c2cn(S(=O)(=O)c3ccc(C)cc3)c3ccccc23)nc(-c2cn(S(=O)(=O)c3ccc(C)cc3)c3ccccc23)n1` returned a TGI of over 100 µM.
Compound `Cc1c2cc[n+](C)cc2c(C)c2c1sc1ccccc12` displayed a TGI of 7.47 µM.
In turn, `CC(C)(C)c1cc(CC2C(=O)c3ccccc3C2=O)cc(C(C)(C)C)c1O` yielded a TGI of 10.8 µM.
For `CCOC(=O)Nc1cc2nnc(-c3ccccc3)nc2c(N)n1`, the TGI was over 100 µM.
The compound `O=C(Nn1c(-c2ccccc2)nc2ccccc2c1=O)c1ccc(CS)cc1` had a TGI of over 100 µM.
Take `COc1ccc(C2CC(c3cc(OC)c(OC)c(OC)c3)=NO2)cc1OCCCCOc1cc2c(cc1OC)C(=O)N1CCC[C@H]1C=N2` (some centres not stated): the GI50 was 3.46 µM and the TGI was found to be 11.5 µM.
In turn, `CCNC(C)Cc1ccccc1` (configuration not stated) came in with a TGI of over 100 µM.
Consider `CC(=O)OC1C(C)OC(Oc2c(C)c3c4c(c2O)[C@@H](C)CC[C@@H]4[C@@H](C)C[C@H]3C=C(C)C)C(O)C1O` (some centres not stated), for which the GI50 is 2.02 µM and the TGI was 4.54 µM.
In the case of `CC(C)[C@]12O[C@H]1[C@@H]1O[C@]13[C@]1(O[C@H]1C[C@H]1C4=C(CC[C@@]13C)C(=O)OC4)[C@@H]2O`, the GI50 was 0.0307 µM.
In turn, `C=C(CN(C)C)C(=O)c1ccccc1C` registered a TGI of over 100 µM.
Take `COc1cc2c(cc1OC)-c1cc3ccccc3c[n+]1CC2`: the TGI is over 100 µM.
Turning to `CN(C)c1ccc(/C=c2/c3ccccc3n3c2c2ccccc2[n+]3C)cc1`, the TGI was 7.81 µM.
Still for that read-out and setting: the value for `OC1[C@H]([C@H]2CCCC[C@@H]2O)CCC[C@@H]1[C@@H]1CCCC[C@H]1O` (some centres not stated) was over 100 µM.
With `O=C(O)CC(NC(=O)C(F)(F)F)C(=O)NC(Cc1ccc(O)cc1)C(=O)O` (stereo not drawn) (Tfa-Asp-Tyr-OH; configuration not given here), the TGI was over 50 µM.
`CN(Cc1cnc2nc(N)nc(N)c2n1)c1ccc(C(=O)NC(CCC(=O)O)C(=O)O)cc1C(F)(F)F` (configuration not stated) returned a TGI of over 100 µM.
With `O=C(NC1CCN(Cc2ccccc2)CC1)c1cc(-c2ccncc2)nc2ccc(Cl)cc12`, the GI50 was 37.9 µM and the TGI was over 100 µM.
In turn, `CC1(C)CC(=O)C(CCC(=O)/C=C/c2ccccc2)C(=O)C1` gave a TGI of over 100 µM.
Turning to `NC1=NC(=O)/C(=C/c2ccccc2[N+](=O)[O-])C(N)=N1`, the TGI was over 100 µM.
In the case of `C/C(=N\NC(=O)c1sc(=S)n(C)c1N)c1cc2ccccc2o1`, the GI50 is 15.2 µM and the TGI is 87.1 µM.
`CN1C(=O)CC(c2cccc(C3CC(=O)N(C)C3=O)n2)C1=O` (configuration not stated) registered a TGI of over 100 µM.
In the case of `CCS(=O)(=O)N1CCC(C(C)n2c(C)c(C(=O)NCc3c(OC)cc(C)[nH]c3=O)c3ccccc32)CC1` (configuration not stated), the GI50 was over 100 µM and the TGI is over 100 µM.
As to `Clc1ccc(CSC(Cn2ccnc2)c2ccc(Cl)cc2Cl)cc1` (configuration not stated), the GI50 was 1.99 µM and the TGI is 5.75 µM.
In turn, `COc1ccccc1/C=C/C1=NN(c2cccc(S(=O)(=O)O)c2)C2(C1)SCC(=O)N2c1nc2ccccc2s1` (configuration not stated) showed a TGI of over 100 µM.
For the compound `O=[N+]([O-])c1ccc(S(=O)(=O)Cc2ccccc2)c([N+](=O)[O-])c1`, the TGI is 32.7 µM.
As for `CCSCC1CC(O)(c2ccccc2)C(c2ccccc2)C(c2ccc(Cl)cc2)O1` (configuration not stated), the GI50 was 1.95 µM and the TGI was found to be 5.16 µM.
With `CN(C)CCOc1ccc(-c2nc(-c3ccc4c(c3)CC/C4=N\O)c(-c3ccncc3)[nH]2)cc1`, the GI50 was 3.96 µM and 6.19 µM; the TGI was 7.96 µM and 19.6 µM.
Take `O=c1sc2c(s1)SSSSS2`: the TGI is over 50 µM.
Compound `CCC(C)n1c(C)nc2c1C(=O)c1ccccc1C2=O` (configuration not stated) came in with a TGI of over 100 µM.
In the case of `Nc1c(C(=O)c2cccc(CCCN3CCOCC3)c2)cnn1-c1ccc(F)cc1`, the GI50 is over 25 µM and the TGI was over 25 µM.
On to `COc1ccc(C2CC(=O)c3c(O)cc(O)cc3O2)cc1O` (configuration not stated), for which the TGI is over 100 µM.
In the case of `OC(c1cccc(-n2ccc(C(F)(F)F)n2)c1)c1cnccc1NC1CCCCCC1` (configuration not stated), the GI50 was 1.58 µM and the TGI was 2.95 µM.
Compound `C=CCOC(=O)N1[C@H]2C#C/C=C\C#C[C@]3(O)C(=O)C[C@H](C)[C@]24O[C@]43C2=CC(=O)C=CC21OC` (some centres not stated) showed a TGI of over 100 µM.
Same read-out and setting: the value for `Cc1cn(Cc2ccccc2CCO)c(=S)[nH]c1=O` was over 100 µM.
With `O=C(Nc1ccc(Cl)c(Cl)c1)c1cccc(NC2=C(Cl)C(=O)N(Cc3ccccc3)C2=O)c1`, the GI50 was over 100 µM and the TGI was over 100 µM.
`Cc1ccc2c3c1O[C@H]1c4[nH]c5ccccc5c4C[C@@]4(O)[C@@H](C2)N(C)CC[C@]314` showed a TGI of 29.4 µM.
On the same count and under the same terms, the value for `O=[N+]([O-])c1nc(-c2ccccn2)[nH]c1[N+](=O)[O-]` was over 100 µM; that for `CN(C)c1ccc2c(=O)c3ccccc3oc2n1` was over 100 µM; that for `O=S(=O)(O)c1c(Cl)cc(O)c2ncccc12` was over 100 µM.
